# Results published in PubChem BioAssay AID463173 (ICCB-Longwood Screening Facility, Harvard Medical School, 2010).
# Out of some 52,000 compounds screened, about 1,700 (3.3%) were called active. No stated cut-off is given here; in the data, active means survival mostly below about 52% (no sharp cut-off); inactive means mostly above about 56%. The list shows a part of the results.
# System: Wild type
# Assay: growth inhibition of S. aureus wild type versus tarO mutant, primary screen, teichoic acid synthesis inhibitors, RN4220, OD600 (AID 463173)
# Conditions: S. aureus RN4220 wild type/DeltatarO growth, OD600, 18 h, hits give low values, screened at 18.75 µg/mL (by protocol)
row,SMILES,survival
1,Cc1cccc(NC(=O)c2cc3c(=O)n(Cc4ccco4)ccc3nc2C)c1,inactive: 68%
2,Cc1nn(-c2ccccc2)c2c1N(CC(=O)NCc1ccc(N(C)C)cc1)C(=O)CS2,inactive: 73%
3,Fc1ccc(-c2nc(-c3cccs3)c(-c3cccs3)[nH]2)cc1,inactive: 79%
4,Cc1ccc2cc3cc(C(=O)N4CCN(c5cccc(C(F)(F)F)c5)CC4)sc3nc2c1,inactive: 89%
5,CCC(=O)N1CCc2cc(S(=O)(=O)CCC(=O)N3CCN(c4ccccc4Cl)CC3)ccc21,inactive: 78%
6,CN(c1ncnc2c1c(-c1ccccc1)cn2-c1ccc(F)cc1)C1CCCCC1,inactive: 124%
7,O=C(NCCOCCO)C(=O)Nc1c2c(nn1-c1ccc(F)cc1)CSC2,inactive: 71%
8,Cc1ccc(N(Cc2cccs2)C(=O)c2ccccc2)cc1,inactive: 91%
9,O=C(NCCn1cc(SCc2cccc(F)c2)c2ccccc21)c1cccc(C(F)(F)F)c1,active: 8%
10,CCOC(=O)c1cc(-c2ccccc2)n(CCC(=O)Nc2ccc(C(F)(F)F)cc2)c1C,inactive: 129%
11,Clc1ccccc1Cn1cccc1C1=NC(Cc2ccccc2)CO1 (stereo unspecified),inactive: 25%
12,COc1ccc(-c2nc3ccc(NS(C)(=O)=O)cc3o2)cc1,inactive: 89%
13,Cn1c(SCC(N)=O)nc2c([nH]c3ccccc32)c1=O,inactive: 63%
14,O=C(O)c1ccc(Nc2nc(-c3ccccc3)c3cc(Br)ccc3n2)cc1,inactive: 57%
15,CCCC1OC2CC3C4CCC5=CC(=O)C=CC5(C)C4C(O)CC3(C)C2(C(=O)O)O1 (stereo unspecified),inactive: 107%
16,CN1C(=O)C(CC(=O)NCC2CCCCC2)SC1=Nc1ccccc1 (stereo unspecified),inactive: 99%
17,N#CC1=C(N)C(C#N)(C#N)C(c2ccco2)C2CN(Cc3ccccc3)CC=C12 (stereo unspecified),inactive: 100%
18,C=CCn1c(C(=O)OCC)cc2oc(C)cc21,inactive: 111%
19,NC(CCc1nc2ccccc2[nH]1)C(=O)O (stereo unspecified),inactive: 105%
20,CC1=CCC(C(=O)Nc2nc3ccccc3s2)C(C(=O)O)C1 (stereo unspecified),inactive: 102%
21,COc1ccc(-n2c(SCC(=O)Nc3nnc(C)s3)nc3c([nH]c4ccccc43)c2=O)cc1,inactive: 88%
22,CCOC(=O)c1scc(-c2ccc(C)cc2)c1S(=O)(=O)Nc1cccc(CC)c1,inactive: 73%
23,Cc1cccc(C(=O)Nc2cccnc2)c1,inactive: 110%

row,SMILES,survival
1,Cc1onc(-c2ccc(Br)cc2)c1C(=O)Nc1ccc(Br)cc1F,inactive: 117%
2,O=C(NCCc1ccccc1)c1c(O)c2cccc3c2n(c1=O)CC3,inactive: 108%
3,CC(C)N(C(=O)c1cc2c(Cl)nc3ccccc3c2s1)C1CCCCC1,active: -1%
4,COc1cccc2sc(N3CCN(C(=O)CS(=O)(=O)c4ccc(Cl)cc4)CC3)nc12,active: -6%
5,CCOC(=O)c1ccccc1Nc1cc(C)nc2nc(-c3ccco3)nn12,inactive: 133%
6,Cc1cccc(C(=O)Nc2cc3c(cc2N2CCOCC2)n(C)c(=O)n3C)c1,inactive: 84%
7,Cc1cc(C)c(S(=O)(=O)N2CCN(Cc3nc4ccc(C)cc4o3)CC2)c(C)c1,inactive: 73%
8,CC1=C(C(=O)Nc2cc(C)ccc2C)C2(CCCCCC2)OC1=O,inactive: 70%
9,O=C(NCCCN1CCN(c2ccccc2)CC1)c1nnc(Cc2ccc(F)cc2)o1,inactive: 98%
10,CCN1C(C(=O)c2ccccc2)=C(OC(=O)COc2ccccc2)c2ccccc2S1(=O)=O,inactive: 63%
11,Nc1c(-c2nc(-c3ccccc3)cs2)c2ccccn2c1C(=O)c1ccc2c(c1)OCO2,inactive: 84%
12,O=C(O)CC(NS(=O)(=O)c1ccc(Br)s1)c1ccccc1 (stereo unspecified),inactive: 85%
13,CCOc1ccc(NC(=O)Cn2cc(C(=O)c3ccc(C)cc3)c(=O)c3cc4c(cc32)OCCO4)cc1,inactive: 128%
14,COc1ccc(-n2c(C)nc3cc(C(=O)NC4CCCC4)ccc32)cc1,inactive: 73%
15,Cc1ccc(N2CCN(S(=O)(=O)c3ccc4oc(=O)c5ncn(C)c5c4c3)CC2)c(C)c1,inactive: 121%
16,CC(C)OCCCN(C)C1CCN(S(=O)(=O)c2csc(C(N)=O)c2)CC1,inactive: 81%
17,CCOCCCNC(=O)Nc1cc(C(=O)NCc2ccc(C(C)C)cc2)ccc1N1CCCC1,inactive: 68%
18,Cc1ccc2nc(NC(=O)C(C)C)sc2c1,inactive: 127%
19,CC(=O)c1ccc(C(=O)N(Cc2cccnc2)c2nc3c(Cl)cccc3s2)cc1,inactive: 119%
20,Cc1cccc(-c2nnc(SCC(=O)N3CCCc4ccccc43)o2)c1,active: 5%
21,CSc1cccc(NC(=O)Cn2nc(C)c3sc4ccccc4c3c2=O)c1,inactive: 81%
22,COc1cc2c(cc1OC)C(COc1ccc(F)cc1)N(C(=O)c1ccccc1F)CC2 (stereo unspecified),inactive: 78%
23,Cc1cc(C)cc(NC(=O)C2CCN(c3cc(C)nc4c(-c5ccc(Cl)cc5)c(C)nn34)CC2)c1,inactive: 87%

row,SMILES,survival
1,CCC1SC(C)C/C(=N\O)C1C (stereo unspecified),inactive: 95%
2,Cc1ccc(S(=O)(=O)c2nnn3c2nc(NCc2cccs2)c2sccc23)cc1C,inactive: 60%
3,COC(=O)C(C)NC(=O)N1CCN(c2nnc(C)c3c(C)n(-c4ccc(Cl)cc4)nc23)CC1 (stereo unspecified),inactive: 73%
4,Cn1nnnc1SCCNCc1ccccc1OCc1ccc(Cl)cc1Cl,inactive: 56%
5,Cc1cccc(CS(=O)(=O)c2ncc(Cl)c(C(=O)Nc3nc4ccc(F)cc4s3)n2)c1,active: 7%
6,COc1ccc(-c2noc(Cn3c(=O)c4ccccc4n(CC(=O)Nc4cccc(C(F)(F)F)c4)c3=O)n2)cc1,inactive: 73%
7,O=C(Cc1ccc(F)cc1)NCCc1csc(-c2cccc(F)c2)n1,inactive: 69%
8,CC(C)NC(=O)N1CCC(N2CCN(Cc3ccc(F)cc3)C(=O)C2=O)CC1,inactive: 70%
9,CCOc1ccc(N(CC)S(=O)(=O)N2CCCC(C(=O)NCc3ccc(Cl)cc3)C2)cc1 (stereo unspecified),inactive: 78%
10,O=S(=O)(Nc1cccc(-c2ccc(N3CCCCCC3)nn2)c1)c1ccccc1,active: 1%
11,CCOC(=O)c1[nH]c(Cc2[nH]c(C(=O)OCC)c(C)c2CC(=O)OC)c(CCC(=O)OC)c1C,inactive: 113%
12,COC(=O)c1ccc(C(=O)O)s1,inactive: 98%
13,Cn1cnnc1SC1CCCCC1NS(=O)(=O)c1ccc(Cl)cc1 (stereo unspecified),inactive: 103%
14,O=C(c1cccc(Cl)c1)N(Cc1ccco1)Cc1ccccc1Cl,inactive: 49%
15,CCc1nc2onc(C)c2c(=O)n1CC(=O)O,inactive: 88%
16,Cc1ccccc1-c1nc(CS(=O)(=O)CC(=O)Nc2cccc(C(F)(F)F)c2)c(C)o1,inactive: 116%
17,COc1ccc2c(c1)c1c(c(=O)n(Cc3ccccc3)c(=O)n1CC(=O)Nc1c(C)cccc1C)n2C,inactive: 81%
18,Cc1ccc(S(=O)(=O)NCCc2sc3nc(-c4ccccc4)nn3c2C)cc1C,inactive: 64%
19,CC(C)(C)c1ccc(OCCCC(=O)N2CCOCC2)cc1,inactive: 102%
20,Cc1oc(-c2cccc(Br)c2)nc1Cn1c(=O)cc(-c2ccccc2)c2c(C)nn(C)c21,inactive: 78%
21,O=C(Cn1c(=O)n(-c2ccc(F)cc2)c(=O)c2sc3ccccc3c21)NC1CCCCC1,inactive: 91%
22,CCOC(=O)c1ccc2c(c1)N(Cc1cccc(C(F)(F)F)c1)C(=O)c1ccccc1S2(=O)=O,inactive: 73%
23,CCCOc1ccc(Nc2cc(C)nc(C)n2)cc1,inactive: 82%

row,SMILES,survival
1,CCOc1ccc2nc(NCCNC(=O)C3CCCCC3)c(C#N)cc2c1,inactive: 113%
2,COc1ccc(N2CCN(Cc3cc(=O)oc4ccc(OC)cc34)CC2)cc1,inactive: 85%
3,CCc1ccccc1Nc1cc(C(=O)NCCc2ccccc2)c2ccccc2n1,inactive: 148%
4,COc1ccccc1NC(=O)C1=C(C)Nc2nc3ccccc3n2C1c1cccc(Br)c1 (stereo unspecified),inactive: 93%
5,COc1ccc(Cn2c(=O)[nH]c3cc(C(=O)N4CCN(c5ccccc5)CC4)ccc3c2=O)cc1,inactive: 124%
6,Cc1ccc(CNC(=O)CCC(=O)N2Cc3ccccc3Oc3ncccc32)cc1,inactive: 73%
7,COc1ccc(OC)c(CCNc2nccn(-c3ccc(C)c(C)c3)c2=O)c1,inactive: 73%
8,O=C(NCC(c1cccnc1)N1CCOCC1)C(=O)Nc1ccc(F)cc1 (stereo unspecified),inactive: 86%
9,Cn1c(SCc2cccc(F)c2)nc2c([nH]c3ccccc32)c1=O,inactive: 129%
10,CCCn1ccc2c(OCC(=O)Nc3ccccc3OCC)cccc2c1=O,inactive: 99%
11,O=C(Nc1ccc2nc(SCC(=O)N3CCCc4ccccc43)sc2c1)c1cccc(Cl)c1,inactive: 91%
12,COc1ccc(CCNC(=O)C2CCN(c3nc4ccccc4nc3C(F)(F)F)CC2)cc1OC,inactive: 81%
13,COc1ccc(C(=O)Oc2c(Sc3ccccc3)c(C)nn2-c2ccccc2)cc1OC,inactive: 65%
14,CN(C(=O)c1ccc(Br)cc1)C1CCCCC1,inactive: 110%
15,Cc1ccc(NC(=O)CN2C(=O)CSc3ccc(S(=O)(=O)N4CCCC4)cc32)c(C)c1,inactive: 98%
16,O=C(NC1CSCC1=O)c1ccccc1 (stereo unspecified),inactive: 108%
17,COCCCNS(=O)(=O)c1ccc(N2CCCCS2(=O)=O)cc1,inactive: 76%
18,COc1ccc(NC(=O)C2=C(C)C(=O)OC23CCN(C(C)C)CC3)cc1Cl,inactive: 77%
19,Cc1ccccc1NC(=O)CSc1nc2ccc(NC(=O)c3ccccc3)cc2s1,inactive: 72%
20,CC1CCC(Nc2ncnc3onc(-c4ccc(Cl)cc4)c23)CC1 (stereo unspecified),inactive: 60%
21,COc1ccc(-c2coc3c2c(C)cc2oc(=O)c(C)c(C)c23)cc1,inactive: 74%
22,CC(=O)OCc1cnc(C)c2oc(=O)c(C(=O)Nc3ccc(C)cc3Cl)cc12,inactive: 121%
